For six substances, binding results are on record in PMC7504102.

Chains of the proteins cited; added tags and fusions are not shown. Lines headed by an entry give the natural chain unless they say otherwise; changes in a name come on top. A line that says so, or that is headed by a name, gives the form on record, which may keep a tag or linker.
UniProt O75340: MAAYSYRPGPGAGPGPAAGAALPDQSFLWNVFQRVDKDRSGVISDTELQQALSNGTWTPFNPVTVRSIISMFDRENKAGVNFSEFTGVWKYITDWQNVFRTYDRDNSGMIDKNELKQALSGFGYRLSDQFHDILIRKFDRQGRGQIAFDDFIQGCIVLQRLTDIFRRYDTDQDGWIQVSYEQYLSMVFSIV
FLAG-ALG-2 E47/114A (O75340, form named): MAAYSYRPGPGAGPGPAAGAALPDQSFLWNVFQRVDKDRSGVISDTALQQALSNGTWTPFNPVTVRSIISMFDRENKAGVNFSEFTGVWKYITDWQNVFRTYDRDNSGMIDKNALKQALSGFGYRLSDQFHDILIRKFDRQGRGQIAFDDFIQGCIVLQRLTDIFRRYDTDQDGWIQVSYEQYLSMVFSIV

Assay [1] deals with T1, StrepHA-SARAF_CytD-SGFP2 (WT) (human) (UniProt Q96BY9).
T1 sequence: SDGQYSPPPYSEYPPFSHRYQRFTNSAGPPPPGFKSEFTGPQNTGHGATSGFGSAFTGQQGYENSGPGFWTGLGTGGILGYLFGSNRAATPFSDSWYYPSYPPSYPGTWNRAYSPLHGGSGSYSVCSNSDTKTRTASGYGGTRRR
In words: pull-down; Strep-pulldown: StrepHA-SARAF_CytD-SGFP2 (WT or mutants) held on Strep-Tactin XT magnetic beads from cleared lysates of HEK293 (endogenous ALG-2) or HEK293 ALG-2KO cells co-expressing FLAG-ALG-2; HKM, 0.2% Nonidet P-40, 10 μM CaCl2, overnight 4 °C; WB with anti-ALG-2 or anti-FLAG.

In assay [2] the target is T2, StrepHA-SARAF_CytD-SGFP2 F228S (human) (UniProt Q96BY9).
T2 sequence: T1 sequence with F34S
The description is as above.

Assay [3] has as its target T3, endogenous SARAF (human (endogenous in HEK293, HeLa, MCF7)) (UniProt Q96BY9).
T3 sequence: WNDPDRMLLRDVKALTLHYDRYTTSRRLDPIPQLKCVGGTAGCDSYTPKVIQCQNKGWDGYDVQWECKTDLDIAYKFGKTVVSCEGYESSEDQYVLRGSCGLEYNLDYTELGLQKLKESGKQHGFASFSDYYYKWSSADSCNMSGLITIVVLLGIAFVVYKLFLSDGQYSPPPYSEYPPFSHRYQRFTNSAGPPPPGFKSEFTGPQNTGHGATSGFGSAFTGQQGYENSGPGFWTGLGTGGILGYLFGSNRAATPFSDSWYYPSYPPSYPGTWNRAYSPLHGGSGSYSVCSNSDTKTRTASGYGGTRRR
Kind of assay: co-IP; IP with anti-SARAF pAb from cleared HEK293 lysates; HKM, 1% CHAPS, 5 mM EGTA, overnight 4 °C; WB with anti-ALG-2 pAb.

The target in assay [4] is T4, untagged wild type (WT) SARAF (human) (UniProt Q96BY9).
T4 sequence: T3 sequence
The assay is described as above.

Assay [5] addresses T1, StrepHA-SARAF_CytD-SGFP2 (WT) (human). In words: pull-down; Strep-pulldown of StrepHA-SARAF_CytD-SGFP2 from mixed HEK293 lysates (HKM, 0.2% Nonidet P-40) with 5 mM EGTA or 5 mM EDTA; WB with anti-ALG-2.
Assay [6] deals with T3, endogenous SARAF (human (endogenous in HEK293, HeLa, MCF7)). In words: co-IP; IP with anti-SARAF pAb from cleared lysates (HEK293 transfected or vector, HeLa, MCF7); HKM, 1% CHAPS, 100 μM CaCl2, overnight 4 °C; WB with anti-ALG-2 pAb.
The target in assay [7] is T4, untagged wild type (WT) SARAF (human). Described as above.
For assay [8], the target named is T5, StrepHA-SARAF_CytD-SGFP2 Δ2 (human) (UniProt Q96BY9).
T5 sequence: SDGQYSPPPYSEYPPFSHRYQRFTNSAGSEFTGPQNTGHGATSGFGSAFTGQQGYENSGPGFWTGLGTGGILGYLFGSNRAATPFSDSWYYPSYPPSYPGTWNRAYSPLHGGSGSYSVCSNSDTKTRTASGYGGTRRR
Kind of assay: pull-down; Strep-pulldown: StrepHA-SARAF_CytD-SGFP2 (WT or mutants) held on Strep-Tactin XT magnetic beads from cleared lysates of HEK293 (endogenous ALG-2) or HEK293 ALG-2KO cells co-expressing FLAG-ALG-2; HKM, 0.2% Nonidet P-40, 10 μM CaCl2, overnight 4 °C; WB with anti-ALG-2 or anti-FLAG.

Assay [9] deals with T6, SGFP2-fused FNDC3A (human) (UniProt Q9Y2H6).
T6 sequence: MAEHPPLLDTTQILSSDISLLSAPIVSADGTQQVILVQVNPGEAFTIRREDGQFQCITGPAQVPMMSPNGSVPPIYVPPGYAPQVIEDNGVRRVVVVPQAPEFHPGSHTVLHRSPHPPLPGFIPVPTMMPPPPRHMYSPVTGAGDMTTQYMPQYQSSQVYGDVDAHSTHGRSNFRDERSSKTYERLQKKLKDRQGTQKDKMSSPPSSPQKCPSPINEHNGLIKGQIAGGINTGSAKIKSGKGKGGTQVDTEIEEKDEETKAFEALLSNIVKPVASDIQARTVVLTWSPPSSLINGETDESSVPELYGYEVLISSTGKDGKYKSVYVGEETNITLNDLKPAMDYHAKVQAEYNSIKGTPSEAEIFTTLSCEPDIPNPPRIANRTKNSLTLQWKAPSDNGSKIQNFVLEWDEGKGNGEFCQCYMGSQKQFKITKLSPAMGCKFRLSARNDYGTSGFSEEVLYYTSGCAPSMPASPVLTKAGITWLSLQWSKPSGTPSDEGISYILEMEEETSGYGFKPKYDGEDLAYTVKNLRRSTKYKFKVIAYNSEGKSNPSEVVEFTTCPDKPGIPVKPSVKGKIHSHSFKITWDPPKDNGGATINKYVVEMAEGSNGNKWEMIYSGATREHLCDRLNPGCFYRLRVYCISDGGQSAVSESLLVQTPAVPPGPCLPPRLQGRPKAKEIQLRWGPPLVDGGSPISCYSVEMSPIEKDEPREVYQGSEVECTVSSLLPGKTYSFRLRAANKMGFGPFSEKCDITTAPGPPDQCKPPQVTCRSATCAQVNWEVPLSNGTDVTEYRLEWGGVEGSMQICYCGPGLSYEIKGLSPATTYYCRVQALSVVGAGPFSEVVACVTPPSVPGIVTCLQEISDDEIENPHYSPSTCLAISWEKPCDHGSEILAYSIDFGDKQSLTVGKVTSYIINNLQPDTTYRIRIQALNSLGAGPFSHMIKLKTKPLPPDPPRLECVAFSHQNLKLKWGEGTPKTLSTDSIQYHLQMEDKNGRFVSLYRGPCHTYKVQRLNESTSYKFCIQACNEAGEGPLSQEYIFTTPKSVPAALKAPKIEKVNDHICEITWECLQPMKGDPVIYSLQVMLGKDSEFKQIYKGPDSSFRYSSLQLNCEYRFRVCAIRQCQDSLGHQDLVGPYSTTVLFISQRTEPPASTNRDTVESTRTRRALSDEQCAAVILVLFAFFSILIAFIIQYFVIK
Kind of assay: far-Western, overlay or dot blot; SGFP2-fused proteins immunoprecipitated with anti-GFP pAb from HEK293 ALG-2KD lysates, resolved and blotted; membrane probed with Nluc-ALG-2; luminescence read in TBS containing 100 μM CaCl2; only the binder purified.

The target in assay [10] is T7, SGFP2-fused SHISA4 (human) (UniProt Q96DD7).
T7 sequence: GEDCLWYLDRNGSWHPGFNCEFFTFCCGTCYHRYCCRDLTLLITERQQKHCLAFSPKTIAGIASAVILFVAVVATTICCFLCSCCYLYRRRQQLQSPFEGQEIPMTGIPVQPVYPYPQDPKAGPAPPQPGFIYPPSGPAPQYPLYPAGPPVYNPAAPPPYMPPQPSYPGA
The assay is described as above.

The target of assay [11] is T7, SGFP2-fused SHISA4 (human). Kind of assay: pull-down; SGFP2-fused proteins held on protein G magnetic beads via anti-GFP pAb; incubated with Nluc-ALG-2 (300 ng/mL) in buffer HKM, 0.2% Nonidet P-40, 0.1% gelatin, 100 μM CaCl2, 2 h, 4 °C; bound luciferase activity relative to Sec31A-p (100%); only the binder purified.

Positions count from the first letter of the chain named. No constants are given. Whether binding was seen depends on the method and setting. For part of these data: Binding seen in cells or lysates may run through a third protein. Some entries that bind do so weakly or less than the wild type. For part of these data: Sequences can lack the tags named with a protein.

For “FLAG-ALG-2 E47/114A (from UniProt O75340 1-191)”, the binding entry in assay [1] is listed as “no binding”.

With “FLAG-ALG-2 F85A (from UniProt O75340 1-191)”, the binding entry in [1] was “no binding”.

Regarding “FLAG-ALG-2 Y180A (from UniProt O75340 1-191)”, in assay [1], the binding result is recorded as “binds”.

Turning to “FLAG-tagged ALG-2 (WT) (from UniProt O75340 1-191)”, the binding entry was “binds” in assay [1] and “no binding” in [2].

As to “endogenous ALG-2 (from UniProt O75340 1-191)”, the binding result is given as “no binding (condition: with 5 mM EGTA)” in [3]; “no binding (condition: with 5 mM EGTA)” in [4]; “no binding (condition: with 5 mM EGTA or 5 mM EDTA)” in assay [5]; “binds” in [6]; “binds” in assay [7]; “binds” in [1]. The binding entry in [8] was “no binding”.

For “nanoluciferase (NanoLuc, Nluc)-fused ALG-2 (from UniProt O75340 1-191)”, the binding result in assay [9], in assay [10] and in assay [11] was “binds” throughout.
